# Source: the supplement of paper PMC4967469
# By IC50 is meant the dose at which the fit gives 50% viability; fits outside the tested doses are given as limits. AUC is the area under the same curve over the 256-fold range up to the top dose, as a fraction; the more sensitive the line, the further below 1. For some of these results: The top dose, if marked as inferred, was derived from the fitted curves, not read from the paper. For some of these results: Drugs with an entry number were screened twice under separate entries, and the two screens often disagree.
# What was measured:
# Experiment in all cases: Viability of human cancer cell lines after 72 h of drug (GDSC screen)
# EX-527 = compound: NC(=O)C1CCCc2c1[nH]c1ccc(Cl)cc21 [EX-527]; conditions: top dose 20 µM
# Procedure: (§1)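 Human cancer cell lines in 384-well plates, medium with 10% serum, drug for 72 h over a 256-fold dose range (nine 2-fold or five 4-fold steps up to the top dose). Adherent lines were fixed and stained with the nucleic acid dye Syto60, suspension lines read with resazurin; signal relative to control wells, capped at 0 and 100%. One two-parameter sigmoid per drug and line, fitted in a mixed model over all curves with the slope shared within a line.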
# AZD6244 = compound: Cn1cnc2c(F)c(Nc3ccc(Br)cc3Cl)c(C(=O)NOCCO)cc21 [AZD6244]; conditions: top dose 4 µM; screen: GDSC drug entry 1498; top dose inferred
# Procedure: as §1
# YM201636 = compound: Nc1ccc(C(=O)Nc2cccc(-c3nc(N4CCOCC4)c4oc5ncccc5c4n3)c2)cn1 [YM201636]; conditions: top dose 5.12 µM; top dose inferred
# Procedure: as §1
# AS601245 = compound: N#CC(c1ccnc(NCCc2cccnc2)n1)c1nc2ccccc2s1 [AS601245]; conditions: top dose 8 µM; top dose inferred
# Procedure: as §1
cell line,measurement,setting,value
"OV-56 (ovary, adherent)",AUC,EX-527,0.989
same,IC50,EX-527,> 20 µM
same,AUC,AZD6244,0.889
same,IC50,AZD6244,> 4 µM
same,AUC,YM201636,0.906
same,IC50,YM201636,> 5.12 µM
"OV-90 (ovary, adherent)",AUC,EX-527,0.97
same,IC50,EX-527,> 20 µM
same,AUC,AZD6244,0.493
same,IC50,AZD6244,0.237 µM
same,AUC,YM201636,0.885
same,IC50,YM201636,> 5.12 µM
"OVCA420 (ovary, adherent)",AUC,EX-527,0.981
same,IC50,EX-527,> 20 µM
same,AUC,AZD6244,0.599
same,IC50,AZD6244,0.513 µM
same,AUC,YM201636,0.883
same,IC50,YM201636,> 5.12 µM
"OVCA433 (ovary, adherent)",AUC,EX-527,0.98
same,IC50,EX-527,> 20 µM
same,AUC,AZD6244,0.727
same,IC50,AZD6244,1.2 µM
same,AUC,YM201636,0.929
same,IC50,YM201636,> 5.12 µM
"OVK-18 (ovary, adherent)",AUC,EX-527,0.978
same,IC50,EX-527,> 20 µM
same,AUC,AZD6244,0.875
same,IC50,AZD6244,> 4 µM
same,AUC,YM201636,0.903
same,IC50,YM201636,> 5.12 µM
"P12-ICHIKAWA (T-cell lymphoblastic leukaemia, suspension)",AUC,EX-527,0.973
same,IC50,EX-527,> 20 µM
same,AUC,AS601245,0.949
same,IC50,AS601245,> 8 µM
same,AUC,AZD6244,0.994
same,IC50,AZD6244,> 4 µM
"PA-1 (ovary, adherent)",AUC,EX-527,0.9
same,IC50,EX-527,15.7 µM
same,AUC,AS601245,0.636
same,IC50,AS601245,1.08 µM
same,AUC,YM201636,0.858
same,IC50,YM201636,2.83 µM
"PEO1 (ovary, adherent)",AUC,EX-527,0.984
same,IC50,EX-527,> 20 µM
same,AUC,AZD6244,0.911
same,IC50,AZD6244,> 4 µM
same,AUC,YM201636,0.979
same,IC50,YM201636,> 5.12 µM
"PFSK-1 (medulloblastoma, adherent)",AUC,EX-527,0.939
same,IC50,EX-527,> 20 µM
same,AUC,AS601245,0.939
same,IC50,AS601245,> 8 µM
same,AUC,YM201636,0.953
same,IC50,YM201636,> 5.12 µM
"QGP-1 (pancreas, adherent)",AUC,EX-527,0.973
same,IC50,EX-527,> 20 µM
same,AUC,AZD6244,0.792
same,IC50,AZD6244,3.29 µM
same,AUC,YM201636,0.9
same,IC50,YM201636,> 5.12 µM
"RCC-AB (kidney, adherent)",AUC,EX-527,0.975
same,IC50,EX-527,> 20 µM
same,AUC,AZD6244,0.853
same,IC50,AZD6244,> 4 µM
same,AUC,YM201636,0.82
same,IC50,YM201636,4.17 µM
"RCC-ER (kidney, adherent)",AUC,EX-527,0.986
same,IC50,EX-527,> 20 µM
same,AUC,AZD6244,0.943
same,IC50,AZD6244,> 4 µM
same,AUC,YM201636,0.986
same,IC50,YM201636,> 5.12 µM
"RCC-FG2 (kidney, adherent)",AUC,EX-527,0.979
same,IC50,EX-527,> 20 µM
same,AUC,AZD6244,0.926
same,IC50,AZD6244,> 4 µM
same,AUC,YM201636,0.844
same,IC50,YM201636,> 5.12 µM
"RCC-JF (kidney, adherent)",AUC,EX-527,0.98
same,IC50,EX-527,> 20 µM
same,AUC,AZD6244,0.689
same,IC50,AZD6244,0.908 µM
same,AUC,YM201636,0.911
same,IC50,YM201636,> 5.12 µM
"RCC-JW (kidney, adherent)",AUC,EX-527,0.986
same,IC50,EX-527,> 20 µM
same,AUC,AZD6244,0.9
same,IC50,AZD6244,> 4 µM
same,AUC,YM201636,0.977
same,IC50,YM201636,> 5.12 µM
"RCC-MF (kidney, adherent)",AUC,EX-527,0.98
same,IC50,EX-527,> 20 µM
same,AUC,AZD6244,0.885
same,IC50,AZD6244,> 4 µM
same,AUC,YM201636,0.74
same,IC50,YM201636,1.95 µM
"RPMI-7951 (melanoma, adherent)",AUC,EX-527,0.985
same,IC50,EX-527,> 20 µM
same,AUC,AS601245,0.843
same,IC50,AS601245,5.43 µM
same,AUC,YM201636,0.903
same,IC50,YM201636,> 5.12 µM
"SCC90 (head and neck, adherent)",AUC,AS601245,0.935
same,IC50,AS601245,> 8 µM
same,AUC,AZD6244,0.589
same,IC50,AZD6244,0.486 µM
"SK-GT-4 (oesophagus, adherent)",AUC,EX-527,0.982
same,IC50,EX-527,> 20 µM
same,AUC,AZD6244,0.551
same,IC50,AZD6244,0.356 µM
same,AUC,YM201636,0.924
same,IC50,YM201636,> 5.12 µM
